These are yes or no findings as the source states them, for the method shown. For some assays here: In cells and extracts the contact can be indirect. Some results given as binding are weak or reduced against the parent protein; the word gives no strength.
How the values were obtained:
BD-MMP-9 (human) = BD-MMP-9 (human) (UniProt P14780); assay: two-hybrid
[1] = target: HA-NS1 (DENV non-structural protein 1) (dengue virus 2 (DENV2)) (UniProt P14340); assay: co-IP
[2] = target: Flag-MMP-9 D1 (106–707) (human) (UniProt P14780); assay: co-IP
[3] = target: Flag-MMP-9 D2 (440–707) (human) (UniProt P14780); assay: co-IP
[4] = target: Flag-MMP-9 D3 (512–707) (human) (UniProt P14780); assay: co-IP
[5] = target: Flag-MMP-9 D4 (106–511) (human) (UniProt P14780); assay: co-IP
[6] = target: Flag-MMP-9 D5 (1–511) (human) (UniProt P14780); assay: co-IP
[7] = target: Flag-MMP-9 D6 (106–440) (human) (UniProt P14780); assay: co-IP
[8] = target: Flag-MMP-9 D7 (106–233) (human) (UniProt P14780); assay: co-IP
[9] = target: Flag-MMP-9 D8 (106–397) (human) (UniProt P14780); assay: co-IP
[10] = target: Flag-MMP-9 D9 (223–440) (human) (UniProt P14780); assay: co-IP
[11] = target: Flag-ZO-1 (Zona occludens protein-1) (UniProt Q07157); assay: co-IP
Flag-β-catenin = Flag-β-catenin (UniProt P35222); assay: co-IP
[12] = target: endogenous β-catenin (human (endogenous in HEK293T and HeLa)) (UniProt P35222); assay: co-IP

By UniProt entry, the sequences of proteins in these tests, tags left out. Where a name states a change or a piece, a line headed by the entry shows the natural chain unless it says otherwise. Residues count along the entry.
UniProt P14780: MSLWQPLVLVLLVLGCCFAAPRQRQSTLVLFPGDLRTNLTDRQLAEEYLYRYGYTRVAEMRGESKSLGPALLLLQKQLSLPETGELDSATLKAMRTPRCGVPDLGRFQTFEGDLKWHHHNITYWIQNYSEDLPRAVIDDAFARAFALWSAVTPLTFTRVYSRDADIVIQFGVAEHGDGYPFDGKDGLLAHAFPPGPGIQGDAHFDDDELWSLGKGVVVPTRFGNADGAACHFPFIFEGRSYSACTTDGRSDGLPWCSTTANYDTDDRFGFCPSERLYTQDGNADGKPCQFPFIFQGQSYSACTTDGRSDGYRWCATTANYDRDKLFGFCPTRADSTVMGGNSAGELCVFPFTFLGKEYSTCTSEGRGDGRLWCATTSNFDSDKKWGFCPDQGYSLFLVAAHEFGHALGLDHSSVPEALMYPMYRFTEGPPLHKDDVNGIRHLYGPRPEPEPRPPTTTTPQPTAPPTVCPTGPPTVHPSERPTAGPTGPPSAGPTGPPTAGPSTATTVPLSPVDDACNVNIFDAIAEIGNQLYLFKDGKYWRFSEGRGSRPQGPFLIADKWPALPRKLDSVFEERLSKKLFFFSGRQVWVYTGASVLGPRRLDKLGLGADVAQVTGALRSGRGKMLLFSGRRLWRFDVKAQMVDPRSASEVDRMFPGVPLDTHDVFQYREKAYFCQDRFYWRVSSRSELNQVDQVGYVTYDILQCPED
Flag-MMP-9 D5 (1–511): residues 20-511 of P14780
Flag-MMP-9 D1 (106–707): residues 106-707 of P14780
Flag-MMP-9 D4 (106–511): residues 106-511 of P14780
Flag-MMP-9 D6 (106–440): residues 106-440 of P14780
Flag-MMP-9 D8 (106–397): residues 106-397 of P14780
Flag-MMP-9 D7 (106–233): residues 106-233 of P14780
Flag-MMP-9 D9 (223–440): residues 223-440 of P14780
Flag-MMP-9 D2 (440–707): residues 440-707 of P14780
Flag-MMP-9 D3 (512–707): residues 512-707 of P14780
UniProt Q07157: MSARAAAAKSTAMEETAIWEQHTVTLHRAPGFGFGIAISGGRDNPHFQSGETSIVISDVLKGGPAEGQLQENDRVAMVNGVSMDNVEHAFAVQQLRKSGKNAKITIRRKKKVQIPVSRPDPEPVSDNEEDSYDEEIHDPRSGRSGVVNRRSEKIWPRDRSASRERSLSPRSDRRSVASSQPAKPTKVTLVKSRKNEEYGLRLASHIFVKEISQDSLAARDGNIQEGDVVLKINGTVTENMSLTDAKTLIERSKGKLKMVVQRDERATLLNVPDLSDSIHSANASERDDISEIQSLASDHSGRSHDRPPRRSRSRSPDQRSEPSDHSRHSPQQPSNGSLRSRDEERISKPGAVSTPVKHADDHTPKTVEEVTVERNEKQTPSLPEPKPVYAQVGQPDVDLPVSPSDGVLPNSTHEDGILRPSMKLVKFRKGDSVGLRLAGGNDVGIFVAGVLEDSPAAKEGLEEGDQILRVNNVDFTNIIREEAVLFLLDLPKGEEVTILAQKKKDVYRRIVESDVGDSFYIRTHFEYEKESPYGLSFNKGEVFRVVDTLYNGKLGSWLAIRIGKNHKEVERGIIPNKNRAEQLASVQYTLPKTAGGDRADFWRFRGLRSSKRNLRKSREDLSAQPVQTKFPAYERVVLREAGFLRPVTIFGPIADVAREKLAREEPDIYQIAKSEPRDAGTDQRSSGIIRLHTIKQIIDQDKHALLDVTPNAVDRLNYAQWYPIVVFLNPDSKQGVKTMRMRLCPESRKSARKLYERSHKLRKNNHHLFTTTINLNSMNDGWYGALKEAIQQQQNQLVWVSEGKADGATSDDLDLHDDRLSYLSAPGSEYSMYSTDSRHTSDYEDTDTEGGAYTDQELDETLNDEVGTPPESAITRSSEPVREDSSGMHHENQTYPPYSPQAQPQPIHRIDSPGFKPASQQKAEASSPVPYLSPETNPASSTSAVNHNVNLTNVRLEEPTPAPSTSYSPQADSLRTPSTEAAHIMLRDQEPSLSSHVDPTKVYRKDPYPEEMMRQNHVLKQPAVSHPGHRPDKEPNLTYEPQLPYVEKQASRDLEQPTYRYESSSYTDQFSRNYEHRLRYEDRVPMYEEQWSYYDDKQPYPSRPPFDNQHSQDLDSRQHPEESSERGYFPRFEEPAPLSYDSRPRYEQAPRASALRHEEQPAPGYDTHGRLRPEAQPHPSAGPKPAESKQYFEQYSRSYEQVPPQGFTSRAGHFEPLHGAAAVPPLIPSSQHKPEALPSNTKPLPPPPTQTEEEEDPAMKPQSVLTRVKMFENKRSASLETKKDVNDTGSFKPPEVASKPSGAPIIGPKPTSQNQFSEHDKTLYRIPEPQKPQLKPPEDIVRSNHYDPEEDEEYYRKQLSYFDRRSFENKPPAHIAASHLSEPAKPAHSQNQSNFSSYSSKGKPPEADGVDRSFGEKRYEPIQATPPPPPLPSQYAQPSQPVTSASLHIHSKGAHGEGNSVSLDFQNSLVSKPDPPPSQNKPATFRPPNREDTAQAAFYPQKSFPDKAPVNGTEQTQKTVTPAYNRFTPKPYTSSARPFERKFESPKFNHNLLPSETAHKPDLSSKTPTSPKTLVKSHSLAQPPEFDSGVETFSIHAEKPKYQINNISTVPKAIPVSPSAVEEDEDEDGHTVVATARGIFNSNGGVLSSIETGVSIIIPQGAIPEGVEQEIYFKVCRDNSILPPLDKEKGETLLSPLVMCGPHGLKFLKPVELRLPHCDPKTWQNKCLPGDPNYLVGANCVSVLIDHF

AD-NS1 (from UniProt P14340 776-1127)
binding (BD-MMP-9 (human)): binds

AD-NS4A (from UniProt P14340 2094-2220)
binding (BD-MMP-9 (human)): no binding

Flag-ZO-1 (Zona occludens protein-1) (from UniProt Q07157 1-1748)
binding [1]: binds

Flag-β-catenin (from UniProt P35222 1-781)
binding [1]: binds

HA-NS1 (DENV non-structural protein 1) (from UniProt P14340 776-1127)
binding [2]: binds
binding [3]: no binding
binding [4]: no binding
binding [5]: binds
binding [6]: binds
binding [7]: binds
binding [8]: binds
binding [9]: binds
binding [10]: binds
binding [11]: binds
binding (Flag-β-catenin): binds
binding [12]: binds

endogenous β-catenin (from UniProt P35222 1-781)
binding [1]: binds
